Reference: PubChem BioAssay AID686979 (National Center for Advancing Translational Sciences (NCATS), 2013)
Out of some 420,000 compounds screened, about 50,000 (12%) were called active. The inconclusive results got no clear call from the source; some entries with a clear call stand among them for comparison. Calls follow the shape of the dose curve; as a rule, active = well fitted inhibition curve with a large enough effect; inconclusive = small, poorly fitted or top-dose-only effect; inactive = flat fitted curve, though single readings scatter. No potency is given beside an inconclusive call; the fits are too rough.

Assay: qHTS for Inhibitors of human tyrosyl-DNA phosphodiesterase 1 (TDP1): qHTS in cells in presence of CPT; also: nearly all actives have a fitted effect of over 55% in size
Conditions: chicken DT40 Tdp1-/-;hTDP1 cells + 20 nM CPT, ATP luminescence, 48 h; activity change, negative = growth inhibition: at 46.2 µM (top of the series) unless noted
Summary of the method: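 Cell growth measured by CellTiter-Glo luminescence after a minimum 48 h, 37 C compound exposure with 20 nM CPT in Tdp1-knockout DT40 cells stably expressing hTDP1, seeded 400/well; qHTS titration format.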
% is scaled to controls: 0 for no effect and ±100 for the full control effect; potency is read from the fitted curve at half-maximal effect; tags tell the direction and shape of the fitted curve.

| SMILES | activity change, negative = growth inhibition | Potency |
| --- | --- | --- |
| Cc1ccc2cc3c(nc2c1)OCC3 | inactive: -12.7% | – |
| Cc1ccc(Oc2nc3ccccn3c(=O)c2/C=C(\C#N)C(=O)NC2CCS(=O)(=O)C2)c(C)c1 (stereo not drawn) | – | inconclusive [inhibitor, partial curve] |
| Cc1nc(N)c(C#N)c(-c2ccccc2)c1C | inactive: -4.87% | – |
| COc1ccc(CCNC(=O)C(C(=O)c2ccc(F)cc2)n2ccccc2=O)cc1OC (stereo not drawn) | – | inconclusive [inhibitor, partial curve, poor fit] |
| CCOC(=O)Nc1ccc2c(c1)N(C(=O)OC)c1ccccc1CC2 | – | inconclusive [inhibitor, single point] |
| O=C(CCn1cnc2ccccc2c1=O)NCc1ccccc1 | inconclusive: -31.6% [inhibitor] | – |
| CCN(CCCNC(=O)C1CCC(=O)N1Cc1ccc(F)cc1)c1cccc(C)c1 (stereo not drawn) | – | inconclusive [inhibitor, single point] |
| O=C1NN(c2ccccc2)C(=O)/C1=C\c1coc2ccc(O)cc2c1=O | – | active: 16.4 µM |
| COc1cc(C(=O)NC2CCCCC2)ccc1OCc1ccc(Cl)cc1Cl | inactive: -25.9% | – |
| COC(=O)Cc1c(C)c2ccc(OC3CCCCC3=O)c(C)c2oc1=O (stereo not drawn) | – | inconclusive [inhibitor, partial curve, poor fit] |
| COc1ccccc1CN1CC[C@@]2(CCCN(C(=O)c3cccn3C)C2)C1 | – | inconclusive [inhibitor, single point] |
| O=C(c1ccc(CN2CCc3ccccc3C2)cc1)N1CCN(c2ccccc2)CC1 | – | active: 13 µM |
| Cc1ccccc1C1NC(c2ccccc2C)C([N+](=O)[O-])C(C)(C)C1[N+](=O)[O-] (stereo not drawn) | inactive: -3.46% | – |
| CCN1C(=O)C(CC(=O)NC)N(NC(=O)c2ccccc2)C1=S (stereo not drawn) | inactive: 1.94% | – |
| COc1ccc(-c2csc(C(C)(O)c3ccccc3)n2)cn1 (stereo not drawn) | – | inconclusive [inhibitor, single point] |
| O=C(NCCc1ccccn1)c1cc(-c2ccc(Cl)c(Cl)c2Cl)nc2ccccc12 | – | inconclusive [inhibitor, single point] |
| Cc1cccc(N2CCN(C(=O)CC(NC(=O)c3ccccc3Cl)c3ccccc3)CC2)c1C (stereo not drawn) | – | active: 18.4 µM |
| COc1ccc2ccccc2c1CN1CCCC(n2cc(C(=O)N3CCCC3)nn2)C1 (stereo not drawn) | inactive: -0.0947% | – |
| C=C(C)C1CCC2(C(=O)O)CCC3(C)C(CCC4C5(C)C(C=O)C(O)C(C)(C)C5CCC43C)C12 (stereo not drawn) | – | inconclusive [inhibitor, single point] |
| CCN1C=C(Cc2ccc(OC)cc2)C2=C(C1)C(c1ccc(OC)cc1)C(C#N)=C(N)O2 (stereo not drawn) | – | inconclusive [inhibitor, partial curve] |
| CCc1ccccc1NC(=O)c1ccc(OCc2c(C)noc2C)cc1 | inactive: -2.53% | – |
| CCOc1ccc(S(=O)(=O)N2CCN(C(=O)c3cccn3C)CC2)cc1 | – | inconclusive [inhibitor, single point] |
| Cc1cccc(C)c1NC(=O)c1oc2c(c1C)-c1nn(Cc3ccccc3)cc1CC2 | – | active: 18.4 µM |

| SMILES | activity change, negative = growth inhibition | Potency |
| --- | --- | --- |
| CCN(CC)C(=O)/C(=C/c1cn(S(=O)(=O)N(C)C)c2ccccc12)NC(=O)c1ccc(OC)cc1 | – | inconclusive [inhibitor, single point] |
| COc1cccc(-c2nc(CS(=O)(=O)CC(=O)NCc3ccccc3OC)c(C)o2)c1 | – | inconclusive [inhibitor, single point] |
| COc1ccc(NC(=O)N(C)C[C@H]2Oc3ccc(NS(=O)(=O)c4ccc(F)cc4)cc3C(=O)N([C@H](C)CO)C[C@@H]2C)cc1 | – | inconclusive [inhibitor, partial curve] |
| CCCC(O)(c1ccc(Cl)cc1)C(CN1CCOCC1)c1ccc(Cl)cc1 (stereo not drawn) | – | inconclusive [inhibitor, single point] |
| COc1ccccc1Cc1c(C(C)(C)C)nc2ccc(C)cn12 | – | active: 0.651 µM |
| Cc1[nH]c2ccccc2c1/C=N/Nc1nc(N2CCCCC2)nc(N2CCCCC2)n1 | – | inconclusive [inhibitor, single point] |
| Clc1ccc2nc(-c3ccco3)c(Cc3ccccc3)n2c1 | – | active: 16.4 µM |
| O=C(Nc1ccccc1C(=O)N1CCOCC1)c1ccc(CSc2ccccc2)cc1 | – | inconclusive [inhibitor, single point] |
| Cc1cccc(OCC(=O)Nc2ccc3nc(C)sc3c2)c1 | – | inconclusive [inhibitor, single point] |
| CN(CCC#N)C(=O)COC(=O)c1ccc(Cl)c(S(N)(=O)=O)c1 | inactive: 8.01% | – |
| CCCCOCCCNC(=O)C[C@@H]1C[C@@]2(C(=O)OC)CCCCC=C2N(Cc2cccc3ccccc23)C1=O | – | inconclusive [inhibitor, single point] |
| Cc1cc(O)c(C(C)C)cc1N=Cc1ccccc1O | – | active: 3.66 µM |
| CCCCn1c(/N=C/c2ccc3c(c2)OCO3)nc2ccccc21 | – | inconclusive [inhibitor, single point] |
| Cc1ccc(S(=O)(=O)Nc2ccc(O)c(S(=O)(=O)c3ccc(C)cc3)c2)cc1 | inconclusive: -31.2% [inhibitor] | – |
| COc1ccc(-c2c(C#Cc3ccsc3)c3cc(Br)ccc3n2C)cc1 | – | inconclusive [inhibitor, single point] |
| O=C(NCC(c1ccccc1)c1ccccc1)c1nn(-c2ccccc2Cl)nc1CO | – | inconclusive [inhibitor, single point] |
| Cc1ccc(S(=O)(=O)Nc2ccc3cc([N+](=O)[O-])ccc3c2[N+](=O)[O-])cc1 | – | inconclusive [inhibitor, single point] |
| CN(C)CCNc1ccc(-c2n[nH]c(=O)c3ccccc23)cc1[N+](=O)[O-] | – | inconclusive [inhibitor, full curve] |
| CC(C)(C)OC(=O)CNC(=O)c1[nH]cnc1C(=O)N[C@@H](Cc1ccccc1)C(=O)OCc1ccccc1 | – | inconclusive [inhibitor, partial curve, poor fit] |
| CCCNC(=O)c1ccc2c(=O)c(O)c(-c3ccc(C)cc3)[nH]c2c1 | – | inconclusive [inhibitor, single point] |
| NCCOc1ccccc1Cc1ccccc1 | – | inconclusive [inhibitor, single point] |
| O=C(CNC(=O)c1ccncc1)N/N=C/c1ccccn1 | inactive: 0.164% | – |
| Cc1ccc(NS(=O)(=O)c2cn(C)c(=O)n(C)c2=O)c(C)c1 | inactive: -5.84% | – |

| SMILES | activity change, negative = growth inhibition | Potency |
| --- | --- | --- |
| Cc1ccc(S(=O)(=O)N(C)Cc2ccc(-c3nnc4n3CCC4)cc2)cc1 | – | inconclusive [inhibitor, single point] |
| CCOC(=O)c1ccc(NC(=O)N2CCN(Cc3cccc(F)c3)CC2)cc1 | – | inconclusive [inhibitor, single point] |
| O=C(C1CCC(=O)N(C2CCCCCC2)C1)N1CCN(c2ccccc2Cl)CC1 (stereo not drawn) | – | inconclusive [inhibitor, single point] |
| CC(NC(=O)Cc1ccc(-c2ccccc2)cc1)c1ccccc1 (stereo not drawn) | – | active: 25.9 µM |
| Clc1ccc2c(N/N=C/c3ccc(Br)cc3)ccnc2c1 | – | inconclusive [inhibitor, single point] |
| CCn1ncc(C2=NOC(C(=O)NCc3ccccc3)C2)c1C (stereo not drawn) | – | active: 1.16 µM |
| Cc1cc2c(c3oc(=O)c4ccccc4c13)CN(Cc1ccc(F)cc1)CO2 | – | inconclusive [inhibitor, single point] |
| CC1=C(C(=O)N(C)C)CC(CC(=O)NCCc2ccccn2)C(=O)N1Cc1ccc(C(C)(C)C)cc1 (stereo not drawn) | – | inconclusive [inhibitor, single point] |
| Cc1ccc(C)c(S(=O)(=O)N2CCN(C(=O)[C@H](C)N3C(=O)C4CC=CCC4C3=O)CC2)c1 (stereo partly drawn) | inactive: -13.7% | – |
| COC(=O)c1cc(Br)c(=O)n(Cc2ccco2)c1 | inactive: -14.3% | – |
| CC[C@@]12C(=O)N(c3ccccc3)C(=O)N1[C@H](c1ccc(Br)cc1)[C@@H]1C(=O)N(C(C)(C)C)C(=O)[C@@H]12 | – | active: 16.4 µM |
| N#Cc1c(-c2ccc(F)cc2)cc(-c2cccnc2)nc1N | inactive: -0.892% | – |
| COCCCNC(=O)CCC(=O)N1Cc2ccccc2Oc2ncccc21 | inactive: -19.3% | – |
| Cc1cc(C)c2oc(-c3cccc(NC(=O)c4ccco4)c3)nc2c1 | – | inconclusive [inhibitor, single point] |
| O=C(N/N=C/c1c(O)ccc2ccccc12)c1ccc(CO)nc1 | – | active: 4.61 µM |
| O=C(Oc1c(CN2CCOCC2)cc(Cl)c2cccnc12)c1ccccc1 | – | inconclusive [inhibitor, single point] |
| Cc1c(Cc2ccc3c(c2)OCO3)sc(NC(=O)C2CC2)c1C(N)=O | – | active: 10.3 µM |
| C[C@H](CO)N1C[C@H](C)[C@@H](CN(C)C(=O)Nc2cc(F)ccc2F)Oc2ncc(-c3cccc(F)c3)cc2C1=O | – | inconclusive [inhibitor, partial curve, poor fit] |
| CCCc1nc2sc3c(SCC(=O)NCc4ccco4)ncnc3c2c2c1CCC2 | – | inconclusive [inhibitor, single point] |
| CC(=O)Nc1c(Cl)cc2c(c1Cl)Cc1ccccc1-2 | – | inconclusive [inhibitor, single point] |
| CC(=O)N1CCC(=NNc2ncc(C(F)(F)F)cc2Cl)CC1 | – | inconclusive [inhibitor, single point] |
| CCC1CCCCN1CCCNC(=O)CN1C(=O)CSc2ccc(S(=O)(=O)N3CCC(C)CC3)cc21 (stereo not drawn) | – | inconclusive [inhibitor, partial curve, poor fit] |
